# The whole screen tested about 45,000 compounds, of which about 200 (0.44%) were called active. About 7% were inconclusive and are not listed. Calls follow the shape of the dose curve; as a rule, active = well fitted activation curve with a large enough effect; inconclusive = small, poorly fitted or top-dose-only effect; inactive = no such curve, though single readings can be large or run the other way. The list shows a part of the results. Peptide text beside a SMILES is read from it. * marks the point of attachment. Boc = CC(C)(C)OC(=O)*
# Assay: qHTS of TDP-43 Inhibitors: NCGC Sytravon Library Screen; also: 0% is about no effect; nearly all actives have a fitted effect of over 55% in size
# Details: yeast TDP-43 toxicity rescue, BacTiter-Glo growth, 24 h; series mostly up to 46.1 µM; growth rescue (activation): at the top concentration
# How it was run: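 TDP-43-expressing yeast, pregrown in raffinose, seeded at OD600 0.02 in galactose medium with compound for 24 hr at 30 deg C. Growth read by BacTiter-Glo luminescence, so rescue of toxicity appears as activation.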
row,SMILES,growth rescue (activation)
1,Cn1cccc1/C=N/NC(=O)Cc1ccccc1,inactive: -1.65%
2,O=C(NCc1cccc(Cl)c1)C1CCC(=O)N(CCN2CCOCC2)C1 (stereo unspecified),inactive: 17.8%
3,CCCN1C(=O)c2ccccc2CC1(C)C(=O)NC1CCCCC1 (stereo unspecified),inactive: 7.14%
4,COc1ccc(C(C)=O)cc1Cn1c(=O)cc(C)[nH]c1=O,inactive: 5.49%
5,O=S(=O)(c1cccs1)N1CCN(c2ccc(F)cc2)CC1,inactive: 14%
6,CC(c1ccon1)N(C)Cc1cn(C)nc1-c1ccc2c(c1)OCCO2 (stereo unspecified),inactive: 9.28%
7,CCOC(=O)c1cc(-c2ccccc2)sc1NC(=O)C(C)OC(=O)c1cccnc1Cl (stereo unspecified),inactive: -1.91%
8,CSc1ccc(NC(=O)C2(C)CCN2C(=O)c2cc(C)n(C)n2)cc1 (stereo unspecified),inactive: 10.8%
9,CCN1CCN(CCOc2cccc(Cl)c2Cl)CC1,inactive: -3.13%
10,CCOC(=O)C(Cc1ccc(O)cc1)NC(=O)CNC(=O)C(CC(C)C)NC(=O)OC(C)(C)C (stereo not drawn) (Boc-Leu-Gly-Tyr-OEt; configuration not given here),inactive: 3.2%
11,NC(=O)NC(CC(=O)Nc1cccnc1)c1cccc(Br)c1 (stereo unspecified),inactive: 6.01%
12,O=C(NCCCN1CCOCC1)c1sc2cc(F)ccc2c1Cl,inactive: -1.98%
13,CCCc1ccc(C(O)c2ncc(-c3ccccc3)[nH]2)cc1 (stereo unspecified),inactive: 6.72%
14,CC(=O)Nc1ccc(S(=O)(=O)N=S(C)(C)=O)cc1,inactive: 1.38%
15,O=C1/C(=C\c2cccc(O)c2O)SC(=S)N1Cc1ccccc1,inactive: -92.6%
16,O=C(N/N=C/c1ccc(-c2ccccc2C(=O)O)o1)c1cccs1,inactive: 6.26%
17,NS(=O)(=O)c1ccc(N/N=C2/CCCCC2C2CCCCC2)c([N+](=O)[O-])c1 (stereo unspecified),inactive: -55.4%
18,Cc1cccc(Oc2ccc(Cl)cc2N)c1,inactive: 5.06%
19,COc1ccc2[nH]c(=O)c(CN(Cc3ccc4c(c3)OCO4)C(C)=O)cc2c1,inactive: 11%
20,CCOC(=O)CSc1nn(-c2ccccc2)c(=S)s1,inactive: 7.6%
21,COc1ccc(/C=N/Nc2ncc(C(F)(F)F)cc2Cl)c(OC)c1OC,inactive: 23.6%
22,COc1ccc(/C=C(/Sc2nnc(-c3ccc(Cl)cc3)o2)C(=O)O)cc1,inactive: 6.5%

row,SMILES,growth rescue (activation)
1,COc1ccc(-c2nnc(SCC(=O)N(C)C3CCS(=O)(=O)C3)n2C(C)C)cc1 (stereo unspecified),inactive: -5.77%
2,CC1CN(c2nc3ccccc3cc2-c2ccccc2)CC(C)O1 (stereo unspecified),inactive: 4.18%
3,COc1cc2c(cc1OC)C1(CCCC1)CNC2c1cccc([N+](=O)[O-])c1 (stereo unspecified),inactive: -16.7%
4,O=C(Nc1ccccc1[N+](=O)[O-])c1cc(S(=O)(=O)Nc2ccccn2)ccc1Cl,inactive: 3.2%
5,CCCNC(=O)c1cc(C2CCCCN2S(C)(=O)=O)on1 (stereo unspecified),inactive: -8.85%
6,O=C(Nc1ccccc1NC(=O)C1CCCO1)c1ccco1 (stereo unspecified),inactive: 0.0759%
7,O=C(Nc1ccc(N2CCN(C(=O)c3ccc(Cl)cc3)CC2)cc1)c1ccc(Br)o1,inactive: 6.62%
8,Cc1nc(NC(=O)/C=C/c2ccc(F)cc2)sc1C(=O)N(C)C,inactive: 11.3%
9,O=c1c2ccccc2[nH]c(=S)n1CCc1ccccc1,inactive: 26.3%
10,CCOc1ccc(CN2C(=O)CC(=O)N(S(=O)(=O)c3ccc(OCC)cc3)C2=O)cc1,inactive: 40.5%
11,CS(=O)(=O)N1CCN(c2ccc(NC(=S)NC(=O)c3ccc4c(c3)OCO4)cc2)CC1,inactive: -2.52%
12,C=C(C)Cc1c(C)c(C#N)c2[nH]c3ccccc3n2c1=O,inactive: -24.8%
13,COc1ccc(OCC(=O)Nn2c(-c3ccc(OC)cc3)nc3ccccc3c2=O)cc1,inactive: 3.71%
14,Cn1cc(-c2ccc(C(=O)NCc3cccc(Cl)c3)c3occc23)cn1,inactive: -1.88%
15,COc1ccccc1/C=N/NC(=O)CSc1cc(C)nc2ccccc12,inactive: 17.3%
16,CC1(C)CC(=O)C(C=NCCN2CCN(CC(=O)Nc3ccccc3)CC2)=C(O)C1,inactive: 4.48%
17,O=C1NC(=O)C(c2ccc(F)cc2)N1 (stereo unspecified),inactive: -0.295%
18,CC(C)C(NS(=O)(=O)/C=C/c1ccccc1)C(=O)NCc1ccc(F)cc1 (stereo unspecified),inactive: -12.9%
19,O=C(Nc1ccc2oc(-c3cccnc3)nc2c1)c1ccc(-c2ccccc2)o1,inactive: 35%
20,CNS(=O)(=O)c1cccc(C(=O)OCC(=O)c2c(N)n(C)c(=O)n(C)c2=O)c1,inactive: 28.4%
21,Cn1c(=O)n(C)c2cc(NC(=O)c3ccccc3[N+](=O)[O-])c(Br)cc21,inactive: -6.52%
22,O=C(NCc1ccc(C(F)(F)F)cc1)c1cccc2c(-c3ccc(F)c(F)c3)coc12,inactive: -6.34%

row,SMILES,growth rescue (activation)
1,COc1ccccc1N(CC(=O)NCc1ccccc1)S(C)(=O)=O,inactive: 7.37%
2,O=C(N/N=C/c1cccc(F)c1)c1c(O)c2c([nH]c1=O)CCCC2,inactive: 4.02%
3,CCOc1ccc(/C=N/OCC(=O)NC(c2ccccc2)c2ccccc2)cc1,inactive: -7.26%
4,CCN(C(=O)CSc1nc2cc(Cl)ccc2c(=O)n1Cc1ccco1)C1CCS(=O)(=O)C1 (stereo unspecified),inactive: 3.37%
5,COc1cccc(/C=N/Nc2nnc3c(n2)[nH]c2ccccc23)c1OC,inactive: -5.59%
6,Cc1cc2nc(Sc3c([N+](=O)[O-])nc(C)n3Cc3ccccc3)[nH]c2cc1C,inactive: 3.44%
7,COc1ccc(CC(=O)Nc2c3c(nn2-c2cccc(C)c2C)CS(=O)C3)cc1 (stereo unspecified),inactive: 28.4%
8,Cc1ccc(NC(=O)C2CCCN(c3nccc(C)n3)C2)c(C)c1 (stereo unspecified),inactive: 12.7%
9,CCOC(=O)N1CCC(=NNC(=O)COc2cccc(C)c2)CC1,inactive: 2.65%
10,CC(C)C[C@H](NC(=O)Nc1cccc(Cl)c1)C(=O)O,inactive: -21.5%
11,CCOC(=O)/C(C#N)=C1/SC(CCO)C(=O)N1c1ccccc1 (stereo unspecified),inactive: 33.8%
12,COc1ccc2c(c1)-c1nc(NC(=O)c3ccc(C)cc3)sc1CC2,inactive: 11.3%
13,Cc1ccc(S(=O)(=O)N2CCC[C@H]2C(=O)NC2=NCCS2)cc1,inactive: 17.9%
14,CC(C)c1nnc(NC(=O)CS(=O)(=O)Cc2ccccc2)s1,inactive: 14.4%
15,O=S(=O)(c1ccccc1)c1nc(-c2cccs2)oc1NCc1cccnc1,inactive: 12.3%
16,COc1ccc(C(=O)O)cc1S(=O)(=O)Nc1ccc(N2CCCCC2)cc1,inactive: 12.6%
17,Cc1[nH]n(-c2ccccc2)c(=O)c1C(=O)Nc1ccccc1,inactive: -2.34%
18,COc1ccc(-c2cn3cccnc3n2)cc1,inactive: 23.2%
19,CC(CNC(=O)CN1C(=O)CCSc2ccccc21)c1ccccc1 (stereo unspecified),inactive: -4.16%
20,Cc1c(Cl)cccc1NC(=O)Nc1ccc(C(=O)N2CCCC2)cc1,inactive: -34.9%
21,O=C(N/N=C/c1cccnc1)c1cc(O)c(O)c(O)c1,inactive: -14.6%
22,Cc1ccc(S(=O)(=O)N2CCCC(C(=O)NC3CC3)C2)cc1 (stereo unspecified),inactive: -0.258%

row,SMILES,growth rescue (activation)
1,N#Cc1ccccc1OCC(=O)OCC(=O)NC1CCCCC1,inactive: 8.2%
2,CCN(CC)C(=O)CS(=O)(=O)CC(=O)Nc1cc(OCCOC)c(Cl)cc1Cl,inactive: -7.11%
3,O=C(NCC(=O)N1CCN(c2ccccc2F)CC1)c1ccco1,inactive: 0.59%
4,COc1ccc(N2CCN(C(=O)CCNS(=O)(=O)c3ccc(C)cc3)CC2)cc1,inactive: 3.54%
5,O=C(N/N=C/c1cc(Cl)cc([N+](=O)[O-])c1O)NC12CC3CC(CC(C3)C1)C2,inactive: 19.2%
6,Cc1c(O)nc(SCC(=O)Nc2ccc(Cl)cc2Cl)n(-c2ccc(F)cc2)c1=O,inactive: 4.76%
7,Cc1ccnc(SCC(=O)c2ccc(Br)cc2)c1C#N,inactive: 16.9%
8,Cc1ccc(NC(=S)N=Nc2c(O)n(C)c3ccc(S(=O)(=O)N4CCOCC4)cc23)cc1C,inactive: 22.6%
9,Cn1c(SCC(=O)N2CCCC2)nnc1-c1cccs1,inactive: -29.2%
10,CNC(=O)CC1C(=O)N(c2ccc(F)cc2)C(=S)N1NC(=O)c1ccc(Cl)cc1 (stereo unspecified),inactive: -8.09%
11,O=C(NCCCN1CCOCC1)c1cc(-c2ccc(Cl)c(Cl)c2)on1,inactive: -11.3%
12,CC(=O)Nc1ccc(NC(=O)CC2(CC(=O)N3CCOCC3)CCCC2)cc1,inactive: 23.2%
13,COc1cc(/C=N/n2c(-c3n[nH]c4c3CCC4)n[nH]c2=S)cc(OC)c1O,inactive: 3.65%
14,Cc1[nH]c(=O)[nH]c(=O)c1/C=C/C(=O)OCC(C)C,inactive: -0.814%
15,Cc1cc(C)cc(Nc2cc(=O)n(C3CCCCC3)c(=O)[nH]2)c1,inactive: 9.28%
16,COc1ccc(OC)c(-c2csc(NC(=O)CSc3ccc(Br)cc3)n2)c1,inactive: 5.15%
17,CCOC(=O)C1CCC(CN(Cc2ccccc2C)S(=O)(=O)c2ccc([N+](=O)[O-])cc2)CC1 (stereo unspecified),inactive: -3.63%
18,COc1cc(C(=O)Nc2ccc(NC(C)=O)cc2)ccc1OCc1ccccc1,inactive: -0.917%
19,Cc1ccc(C)c(N2CC(C(=O)Nc3cc(C)on3)CC2=O)c1 (stereo unspecified),inactive: 12.8%
20,CC(=O)N1CCN(S(=O)(=O)c2cccc(C(=O)OCN3C(=O)c4ccccc4C3=O)c2)CC1,inactive: 7.45%
21,O=C(CCn1c(=O)c2sccc2n(Cc2ccc(F)cc2)c1=O)NCc1ccc2c(c1)OCO2,inactive: 11%
22,CCOc1ccc(C(C)=O)cc1CSC(=N)N,inactive: 5.39%

row,SMILES,growth rescue (activation)
1,Cc1ccc(-n2nc3cc(C)c(NC(=O)c4ccc(-c5ccccc5)o4)cc3n2)cc1,inactive: 2.68%
2,CCCCCn1c(=O)[nH]c2cc(C(=O)NC3CCN(Cc4ccccc4)CC3)ccc2c1=O,inactive: 23.8%
3,Cc1cc(NC(=O)Cc2ccccc2)ccc1NC(=O)c1cccs1,inactive: -15.5%
4,O=C(NCC1CCCCC1)c1cc([N+](=O)[O-])ccc1Cl,inactive: 15.3%
5,COC(=O)c1cc(Br)c(=O)n(-c2ccccc2OC)c1,inactive: 2.42%
6,COc1cccc(Nc2nnc(-c3cc4ccc(O)cc4oc3=O)s2)c1,inactive: 4.69%
7,CC(NC(=S)NC1CCCCC1)C(c1ccccc1)N1CCOCC1 (stereo unspecified),inactive: -24.7%
8,CC(O)CNc1nc2sc3c(c2c(=O)n1Cc1ccco1)CCCCC3 (stereo unspecified),inactive: 14.4%
9,Cc1cc(/C=N/O)c(C)n1-c1ccccc1,inactive: 10.8%
10,O=C(CCn1c(=O)oc2ccccc21)N1CCN(C(c2ccccc2)c2ccccc2)CC1,inactive: 25.1%
11,CC(C)CC(N)c1csc(NC(=O)Nc2ccccc2-c2ccccc2)n1 (stereo unspecified),inactive: 14.5%
12,Cc1ccc(C)c(NC(=O)C2CC(=O)N(C3CCCCC3)C2)c1 (stereo unspecified),inactive: 6.16%
13,O=C(Nc1ccc(Oc2ccccc2)cc1)c1ccc2nc([C@@H]3O[C@H](CO)[C@H](O)[C@H](O)[C@H]3O)[nH]c2c1,inactive: 9.04%
14,CC(SCC(=O)O)c1nc2ccccc2[nH]1 (stereo unspecified),inactive: -2.2%
15,C1CCN(Cc2nnnn2CC2CCCO2)CC1 (stereo unspecified),inactive: 13.7%
16,CC1(C)CC(=O)C=C(Nc2cccc(F)c2)C1,inactive: -1.1%
17,Cc1ccc(NC(=O)CN(Cc2ccco2)Cc2ccccc2O)cc1C,inactive: -11.8%
18,CC1CCc2c(nc3sc4c(c3c2N)CCCC4)C1 (stereo unspecified),inactive: 9.14%

# Source: PubChem BioAssay AID1347073 (National Center for Advancing Translational Sciences (NCATS), 2019)
